From US20230192795A1 (Hoffmann-La Roche, published 2023)

B1: PD1-IL7-VAR18 (K81E) VAR20 (G85K) (other)
light: DIVMTQSPDSLAVSLGERATINCKASESVDTSDNSFIHWYQQKPGQSPKLLIYRSSTLESGVPDRFSGSGSGTDFTLTISSLQAEDVAVYYCQQNYDVPWTFGQGTKVEIKRTVAAPSVFIFPPSDEQLKSGTASVVCLLNNFYPREAKVQWKVDNALQSGNSQESVTEQDSKDSTYSLSSTLTLSKADYEKHKVYACEVTHQGLSSPVTKSFNRGEC
heavy 1: EVQLLESGGGLVQPGGSLRLSCAASGFSFSSYTMSWVRQAPGKGLEWVATISGGGRDIYYPDSVKGRFTISRDNSKNTLYLQMNSLRAEDTAVYYCVLLTGRVYFALDSWGQGTLVTVSSASTKGPSVFPLAPSSKSTSGGTAALGCLVKDYFPEPVTVSWNSGALTSGVHTFPAVLQSSGLYSLSSVVTVPSSSLGTQTYICNVNHKPSNTKVDKKVEPKSCDKTHTCPPCPAPEAAGGPSVFLFPPKPKDTLMISRTPEVTCVVVDVSHEDPEVKFNWYVDGVEVHNAKTKPREEQYNSTYRVVSVLTVLHQDWLNGKEYKCKVSNKALGAPIEKTISKAKGQPREPQVCTLPPSRDELTKNQVSLSCAVKGFYPSDIAVEWESNGQPENNYKTTPPVLDSDGSFFLVSKLTVDKSRWQQGNVFSCSVMHEALHNHYTQKSLSLSPGK
heavy 2: EVQLLESGGGLVQPGGSLRLSCAASGFSFSSYTMSWVRQAPGKGLEWVATISGGGRDIYYPDSVKGRFTISRDNSKNTLYLQMNSLRAEDTAVYYCVLLTGRVYFALDSWGQGTLVTVSSASTKGPSVFPLAPSSKSTSGGTAALGCLVKDYFPEPVTVSWNSGALTSGVHTFPAVLQSSGLYSLSSVVTVPSSSLGTQTYICNVNHKPSNTKVDKKV[human IgG1 Fc with changes left out]GGGGSGGGGSGGGGSDCDIEGKDGKQYESVLMVSIDQLLDSMKEIGSNCLNNEFNFFKRHICDANKEGMFLFRAARKLRQFLKMNSTGDFDLHLLEVSEKTTILLNCTGQVKGRKPAALGEAQPTKSLEENKSLKEQKKLNDLCFLKRLLQEIKTCWNKILMGTKEH
notes: Format as m1; IL-7 with K81E and G85K; also called PD1-IL7 VAR18/20 (K81E/G85K); PD1-IL7VAR18/20
B2: PD1-IL7-VAR18 (K81E) VAR21 (G85E) (other)
light: B1 light
heavy 1: B1 heavy 1
heavy 2: EVQLLESGGGLVQPGGSLRLSCAASGFSFSSYTMSWVRQAPGKGLEWVATISGGGRDIYYPDSVKGRFTISRDNSKNTLYLQMNSLRAEDTAVYYCVLLTGRVYFALDSWGQGTLVTVSSASTKGPSVFPLAPSSKSTSGGTAALGCLVKDYFPEPVTVSWNSGALTSGVHTFPAVLQSSGLYSLSSVVTVPSSSLGTQTYICNVNHKPSNTKVDKKV[human IgG1 Fc with changes left out]GGGGSGGGGSGGGGSDCDIEGKDGKQYESVLMVSIDQLLDSMKEIGSNCLNNEFNFFKRHICDANKEGMFLFRAARKLRQFLKMNSTGDFDLHLLEVSEETTILLNCTGQVKGRKPAALGEAQPTKSLEENKSLKEQKKLNDLCFLKRLLQEIKTCWNKILMGTKEH
notes: Format as m1; IL-7 with K81E and G85E; also called PD1-IL7 VAR18/21 (K81E/G85E); PD1-IL7VAR18/21

How the values were obtained:
[1] = target: T1, IL-7Rα/IL-2Rγ on human T cells (human, UniProt P16871 21-459; P31785 23-369); experiment: cell-based or functional assay
T1 sequence (looked up) 1: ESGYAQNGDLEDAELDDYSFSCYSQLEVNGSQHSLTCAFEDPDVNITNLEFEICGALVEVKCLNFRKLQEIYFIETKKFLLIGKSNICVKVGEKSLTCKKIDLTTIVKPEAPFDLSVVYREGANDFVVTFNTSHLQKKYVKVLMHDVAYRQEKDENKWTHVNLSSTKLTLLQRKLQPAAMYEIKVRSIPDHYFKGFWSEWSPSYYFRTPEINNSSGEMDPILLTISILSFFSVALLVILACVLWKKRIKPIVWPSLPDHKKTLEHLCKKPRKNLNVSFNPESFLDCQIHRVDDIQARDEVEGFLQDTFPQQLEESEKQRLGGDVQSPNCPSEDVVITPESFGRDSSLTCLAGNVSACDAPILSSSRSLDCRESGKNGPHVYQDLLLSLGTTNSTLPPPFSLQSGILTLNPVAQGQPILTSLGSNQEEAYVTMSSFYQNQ
T1 sequence (looked up) 2: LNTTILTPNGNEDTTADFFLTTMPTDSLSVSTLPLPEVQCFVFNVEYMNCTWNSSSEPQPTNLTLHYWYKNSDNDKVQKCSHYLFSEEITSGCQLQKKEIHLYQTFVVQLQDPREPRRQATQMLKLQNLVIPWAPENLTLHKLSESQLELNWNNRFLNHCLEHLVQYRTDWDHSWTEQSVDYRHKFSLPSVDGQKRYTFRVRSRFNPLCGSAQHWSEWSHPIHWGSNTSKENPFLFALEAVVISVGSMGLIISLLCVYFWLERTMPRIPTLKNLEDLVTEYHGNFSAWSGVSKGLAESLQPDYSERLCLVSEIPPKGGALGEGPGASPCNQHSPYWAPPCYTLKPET

human PD-1 on T cells = human PD-1 on T cells (human, UniProt Q15116 25-288); experiment: cell-based or functional assay
Sequence of human PD-1 on T cells (Q15116 25-288 limits assumed): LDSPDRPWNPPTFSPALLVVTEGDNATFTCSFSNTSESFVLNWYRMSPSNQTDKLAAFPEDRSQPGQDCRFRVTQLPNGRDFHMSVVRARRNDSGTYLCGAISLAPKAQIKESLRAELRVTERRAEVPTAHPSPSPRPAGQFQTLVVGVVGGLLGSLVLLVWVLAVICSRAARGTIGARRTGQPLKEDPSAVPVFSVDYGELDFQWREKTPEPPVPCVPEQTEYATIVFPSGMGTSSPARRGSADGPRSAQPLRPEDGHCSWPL

[2] = target: T1, IL-7Rα/IL-2Rγ on human T cells; experiment: cell-based or functional assay; remark: listed apart in the source
[3] = target: T2, murine IL7Ra-IL2Rg-Fc biotin (murine, UniProt P16872 21-239; P34902 23-263); experiment: SPR, captured via anti-P329G
T2 construct: extracellular domain; Heterodimer of the ECD of IL7Ra and IL2Rg chains fused to an Fc; also called murine IL7Ralpha-IL2Rgamma-Fc heterodimer; murine IL7 receptor; not shown: Fc part and avi tag; Fc part
T2 sequence (looked up) 1: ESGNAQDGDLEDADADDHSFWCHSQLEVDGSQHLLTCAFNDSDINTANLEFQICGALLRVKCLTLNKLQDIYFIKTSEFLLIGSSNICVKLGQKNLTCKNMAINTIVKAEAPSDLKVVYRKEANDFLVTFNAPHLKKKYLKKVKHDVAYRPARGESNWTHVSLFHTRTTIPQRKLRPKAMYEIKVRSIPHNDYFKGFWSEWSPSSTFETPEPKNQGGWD
T2 sequence (looked up) 2: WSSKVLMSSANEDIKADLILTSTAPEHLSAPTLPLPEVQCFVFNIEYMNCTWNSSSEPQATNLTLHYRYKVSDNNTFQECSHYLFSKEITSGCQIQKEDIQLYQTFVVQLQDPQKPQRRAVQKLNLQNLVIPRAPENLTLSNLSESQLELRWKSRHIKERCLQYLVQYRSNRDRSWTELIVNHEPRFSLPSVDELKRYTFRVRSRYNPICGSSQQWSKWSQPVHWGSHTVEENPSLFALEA
Experimental: (§1) Surface Plasmon Resonance (SPR) experiments were performed on a Biacore 8 K with HBS-EP + 1 mg/ml BSA as running buffer. Anti-P329G Fc specific antibody (Roche internal) was directly immobilized by amine coupling on a C1 chip (Cytiva). The PD1-IL7 constructs were captured for 140 s at 5 nM. […] The dissociation phase was monitored for 800 s and triggered by switching from the sample solution to running buffer. The chip surface was regenerated after every cycle using two injections of 10 mM glycine pH 2 for 60 sec. Bulk refractive index differences were corrected for by subtracting the response obtained on the reference flow cell (containing immobilized anti P329G Fc specific IgG only). The affinity constants were derived from the kinetic rate constants by fitting to a 1:1 Langmuir binding using the Biacore evaluation software (Cytiva).
(§2) Four IL7 single variants and two IL7 double variants were compared to IL7 wild-type for binding to murine IL7 receptor (Table 19). The affinity of the IL7 variants to the IL7 receptor was determined using the recombinant heterodimer of the extracellular domains of the IL7 receptor alpha chain and the common IL2 receptor gamma chain.

[4] = target: T3, Human IL7Ra-IL2Rγ-Fc heterodimer (human, biotin on the avi tag); experiment: SPR, captured via anti-P329G, receptor-Fc 2.34-300 nM, 1:1 fit
T3 construct: Extracellular domains of IL-7Ralpha and IL-2Rgamma fused to Fc knob and Fc hole; also called hu IL7Ra-IL2Rγ-Fc avi biotin; human IL7Ra-IL2Rg-Fc biotin
Experimental: as §1
as §2, with “human” for “murine”, “17).” for “19).”

[5] = target: T4, cynomolgus IL7Ra-IL2Rg-Fc biotin (cynomolgus, UniProt P13232;Q29615); experiment: as above
T4 construct: extracellular domain; Heterodimer of the ECD of IL7Ra and IL2Rg chains fused to an Fc; also called cynomolgus IL7Ralpha-IL2Rgamma-Fc heterodimer; cynomolgus IL7 receptor
Experimental: as §1
as §2, with “cynomolgus” for “murine”, “18).” for “19).”

[6] = target: T3, Human IL7Ra-IL2Rγ-Fc heterodimer; experiment: SPR (Example 2.4), captured via anti-P329G, receptor-Fc 2.34-300 nM, 1:1 fit
Experimental: as §1, with “SPR” for “Surface Plasmon Resonance (SPR)”
Four IL7 single variants, two IL7 double variants and IL7 wild-type were compared to four reference molecules with modified IL7 for binding to human IL7 receptor (Table 23). The affinity of the IL7 variants to the IL7 receptor was determined using the recombinant heterodimer of the extracellular domains of the IL7 receptor alpha chain and the common IL2 receptor gamma chain.

[7] = target: T3, Human IL7Ra-IL2Rγ-Fc heterodimer; experiment: SPR (Example 2.4), captured via anti-P329G, receptor-Fc 2.34-300 nM, 1:1 fit, single value
Experimental: as §1, with “SPR” for “Surface Plasmon Resonance (SPR)”

| Binder | EC50 [PD1+]/ EC50[PD1-IL7wt] [1] [fold] | STAT5-P AUC PD1+ [1] | STAT5-P AUC PD1 blocked [1] | EC50[active] / EC50 [active PD1-IL7wt] [2] [fold] | EC50[fresh]/EC50 [fresh PD1-IL7wt] [2] [fold] | STAT5-P AUC [active] [2] | STAT5-P AUC [fresh] [2] | binding result [3] | Kd [4] [nM] | koff [4] [s⁻¹] | kon [4] [M⁻¹ s⁻¹] | Kd [5] [nM] | koff [5] [s⁻¹] | kon [5] [M⁻¹ s⁻¹] | further results |
| --- | --- | --- | --- | --- | --- | --- | --- | --- | --- | --- | --- | --- | --- | --- | --- |
| B1 | 16.5 | 58 | 12.9 | 27.4 | 304 | 81 | 143 | no binding (tested: 2.34 to 300 nM receptor-Fc) | 121 | 0.0162 | 135000 | 155 | 0.0251 | 162000 | EC50 [PD1blocked]/ EC50 [PD1+] (human PD-1 on T cells): 109 fold; Kd [6]: 129 nM; koff [6]: 0.0124 s⁻¹; kon [6]: 96400 M⁻¹ s⁻¹ |
| B2 | 49.9 | 28.5 | 3 | 106 | 1720 | 42.8 | 73 | no binding (tested: 2.34 to 300 nM receptor-Fc) | 266 | 0.0207 | 78100 | 529 | 0.035 | 67000 | Kd [7]: 342 nM; koff [7]: 0.0148 s⁻¹; kon [7]: 43300 M⁻¹ s⁻¹ |
